Results published in the supplement of paper PMC3334620.
Over roughly 33,000 sequences, “E-score (-0.5 to 0.5)” has its median near -0.035; the highest 2% begin near 0.35. The list shows a part of the results.

target: T1, Pdr3 (UniProt P33200); assay: PBM E-score (8-mer binding enrichment) (E-score (-0.5 to 0.5)); higher = stronger / more preferred TF binding; most listed sequences are background and not binding sites; conditions: protein concentration: 200 nM; construct: GST-full length
T1 sequence: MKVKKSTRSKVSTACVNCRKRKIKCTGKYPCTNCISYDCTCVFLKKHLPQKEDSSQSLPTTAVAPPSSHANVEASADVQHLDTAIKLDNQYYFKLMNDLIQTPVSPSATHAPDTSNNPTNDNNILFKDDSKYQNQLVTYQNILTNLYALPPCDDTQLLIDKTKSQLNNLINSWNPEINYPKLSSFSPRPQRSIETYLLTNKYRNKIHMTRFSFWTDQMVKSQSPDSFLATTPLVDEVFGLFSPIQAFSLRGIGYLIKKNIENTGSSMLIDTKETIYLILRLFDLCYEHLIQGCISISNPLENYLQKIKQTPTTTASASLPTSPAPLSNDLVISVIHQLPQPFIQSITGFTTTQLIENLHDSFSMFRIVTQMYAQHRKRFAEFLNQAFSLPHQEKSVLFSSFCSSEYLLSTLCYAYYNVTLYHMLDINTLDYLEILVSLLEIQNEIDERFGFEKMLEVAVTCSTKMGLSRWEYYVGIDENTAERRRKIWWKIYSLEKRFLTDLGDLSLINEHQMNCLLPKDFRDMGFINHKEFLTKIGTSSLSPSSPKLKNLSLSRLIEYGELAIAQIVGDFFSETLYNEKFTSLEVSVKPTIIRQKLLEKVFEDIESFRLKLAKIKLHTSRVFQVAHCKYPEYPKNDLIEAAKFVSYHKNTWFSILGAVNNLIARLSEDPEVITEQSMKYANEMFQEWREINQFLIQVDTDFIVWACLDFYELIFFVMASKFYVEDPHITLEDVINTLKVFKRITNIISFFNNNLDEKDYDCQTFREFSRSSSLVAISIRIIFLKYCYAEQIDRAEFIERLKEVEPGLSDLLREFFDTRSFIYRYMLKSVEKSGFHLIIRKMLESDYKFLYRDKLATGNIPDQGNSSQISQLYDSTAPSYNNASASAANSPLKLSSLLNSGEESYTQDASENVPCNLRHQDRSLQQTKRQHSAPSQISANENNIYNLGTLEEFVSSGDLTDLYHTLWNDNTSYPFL
In short: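 PURExpress in vitro transcription/translation supplied GST-tagged yeast transcription factors, either full-length or DNA-binding domain. Applied at about 100-200 nM to universal all-10-mer Agilent arrays double-stranded by primer extension, the bound protein was detected with fluorescent anti-GST. E-scores, modified Wilcoxon-Mann-Whitney statistics, were given by the Universal PBM Analysis Suite to ungapped eight-base words pooled with their reverse complements after masliner normalisation.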

| Sequence | PBM E-score |
| --- | --- |
| CTATCAGC | -0.156 |
| CCATTGAA | 0.0398 |
| ATTACGTG | -0.135 |
| CGCTTACG | -0.16 |
| GGATCTAA | 0.0614 |
| ACACTCCA | -0.195 |
| CTAACCCC | -0.115 |
| GAGGGATA | -0.105 |
| GCCTTCAA | -0.0715 |
| ATATCGCC | 0.277 |
| AGTGCATG | -0.113 |
| AACACACT | -0.0524 |
| CCTAGCGC | -0.0156 |
| CAACCGTC | -0.0821 |
| ACTTTCAC | 0.0246 |
| ATTATACC | 0.199 |
| ATATTGCA | 0.0521 |
| TAGCCAAA | 0.011 |
| TGACCCAA | -0.125 |
| CTCTAGTC | -0.224 |
| AATAGTAG | -0.00984 |
| AAAGTACG | -0.0945 |
| GTCATACA | -0.141 |
| GTTTGATA | 0.121 |
| CGCAATTA | 0.185 |

| Sequence | PBM E-score |
| --- | --- |
| ACAAAGCT | 0.0501 |
| AGCCCTGG | -0.169 |
| GGCCCTCA | -0.125 |
| GCCACTAC | -0.0549 |
| ACACATTA | -0.0668 |
| ACGCATAA | -0.104 |
| AAACTGGC | -0.0559 |
| ATCAGAAC | -0.0723 |
| AGGGGGTA | -0.346 |
| AGCTGGCA | -0.0705 |
| CCTTGCGA | 0.0345 |
| GGCACGTA | -0.0982 |
| AGTCGGAG | 0.134 |
| GCAACGGC | 0.152 |
| ATACGGGG | 0.047 |
| CTTTCGAC | -0.112 |
| GAGCCATA | -0.117 |
| AAACCATA | -0.0435 |
| AAGAGCAC | -0.102 |
| CCACGCGA | -0.0519 |
| AAGATGAG | -0.341 |
| GAGCTAGC | -0.119 |
| CTCGCTAC | -0.0291 |
| GATAGTGA | -0.0683 |
| CCAAGGGG | -0.0916 |

| Sequence | PBM E-score |
| --- | --- |
| ACAGTCAG | -0.119 |
| ACAATTAA | 0.0595 |
| CACCAACC | 0.0571 |
| CACACTGG | -0.167 |
| AGAAGCGA | -0.0702 |
| CAATCAGA | -0.223 |
| CGTGTCGC | 0.169 |
| AACACTTA | -0.0344 |
| CATGGATA | -0.0821 |
| GCGAAAAC | -0.115 |
| CGTTAACA | -0.161 |
| CGGGAGTC | 0.113 |
| ATAACAGG | -0.267 |
| AATAACGT | -0.00983 |
| ACTGTTAT | -0.0454 |
| AAGTAACT | 0.0927 |
| ATCTGCAT | 0.0129 |
| CCAGCCGG | 0.261 |
| TCAGTGGA | -0.116 |
| ACAAACGA | 0.00467 |
| AGTGATAG | -0.175 |
| TGCACGAA | -0.185 |
| TCAAAAAA | 0.0745 |
| ATCGCGAA | 0.283 |
| AAGGCGAT | -0.153 |

| Sequence | PBM E-score |
| --- | --- |
| CTGGGCGA | -0.0711 |
| ATCGACCG | 0.0883 |
| CGAGTTGC | 0.0466 |
| GCCTCACA | -0.114 |
| CGAAATCA | 0.0981 |
| CGAGAAGA | -0.0273 |
| CACTGAGG | -0.0522 |
| CCAGAATC | 0.0384 |
| GCTCTAAC | -0.183 |
| ATTCTGAC | -0.0174 |
| ATGTGAAG | -0.0856 |
| TGTAGTAA | -0.016 |
| AATTGAAA | -0.0894 |
| CATCATTC | 0.108 |
| GATAATCA | 0.0481 |
| ATGAGTGA | -0.22 |
| TCAACCCA | 0.0865 |
| AGGTAAGC | -0.114 |
| CAGAAGTA | -0.143 |
| CTCGGCTC | 0.131 |
| CATGGGGC | -0.0792 |
| GCAGCCAA | 0.0191 |
| ATAACTAT | -0.0524 |
| GGCATGAC | -0.197 |
| TACTAATA | -0.0724 |

| Sequence | PBM E-score |
| --- | --- |
| GCGCGCAC | 0.267 |
| CGGTGACG | -0.0532 |
| CTCATCTC | 0.0412 |
| AACGCGAA | 0.109 |
| GTCGAGTA | -0.0107 |
| GTTAGACA | 0.0146 |
| ACGCCGCC | 0.0831 |
| AGTGAGTA | 0.00272 |
| CACTTTTA | -0.168 |
| AATGCGTG | -0.116 |
| AATCCGGA | 0.455 |
| CGCCTCAA | -0.0363 |
| CGTGTGTA | 0.0958 |
| CCGCTGAA | 0.134 |
| CCTGCTCA | -0.12 |
| ACTACGAG | -0.148 |
| GCCTTGAC | -0.0613 |
| AAAAAGGT | -0.0428 |
| AAGTAACA | 0.0139 |
| CTAGTAGC | -0.158 |
| CCAGCGGC | 0.0958 |
| GCCCAGAA | -0.0633 |
| CCTTAGCG | -0.125 |
| AAGGTCTA | -0.0934 |
| AATCGCAT | -0.0118 |

| Sequence | PBM E-score |
| --- | --- |
| ATTGAAGC | -0.014 |
| CCAACACA | -0.111 |
| TATTTGAA | 0.0114 |
| ACTCATAC | 0.126 |
| CTTAGACA | -0.244 |
| CAACTGGC | -0.117 |
| CCTCCACC | -0.141 |
| GAGATCGA | 0.034 |
| GCTGACCC | -0.0653 |
| ACGATCAA | -0.159 |
| ACGGAGCA | 0.343 |
| ACTTTACT | -0.137 |
| AGTTATTC | 0.0364 |
| ATACAGTG | -0.129 |
| ACTTGGTA | -0.15 |
| CTGGGGAC | -0.192 |
| GGGGTACC | -0.0641 |
| AGTGGTTA | -0.112 |
| AGGGTAGG | -0.0038 |
| CCATACGC | -0.00666 |
| AAGCCTTA | -0.178 |
| GTCGTGCA | -0.0964 |
| AAAGACTG | -0.367 |
| GCGGCGAA | 0.251 |
| TAGTAGAA | 0.0283 |

| Sequence | PBM E-score |
| --- | --- |
| ATTGTAGA | -0.0569 |
| GGGCTTAA | -0.187 |
| ATGGATCC | 0.295 |
| GATTCGAC | 0.00864 |
| ATGGGGTA | 0.0341 |
| TCGGAAGA | 0.359 |
| GTACCAAA | 0.0429 |
| GGGTTGTA | -0.0802 |
| CGAGGACG | 0.123 |
| AACCTCAA | -0.0891 |
| CATATGCG | 0.0754 |
| GGCTCTTA | -0.117 |
| GTCCGGTA | 0.181 |
| ATTTACCG | 0.224 |
| CGTATTTC | -0.0107 |
| GGTAGAGA | -0.0811 |
| AAATCGCG | 0.0946 |
| CAATACCA | -0.0109 |
| TCTACTAA | 0.00656 |
| TGCGCGAA | 0.163 |
| TCCATCGA | 0.00286 |
| ATCTCGCG | 0.188 |
